# According to PubChem BioAssay (NCATS):
# Values joined by “and” are separate entries in the source; they are usually repeats but may differ in a detail not shown here. Equal values may be shown once. This list was built around the results that the source calls inconclusive (neither active nor inactive); the mix of calls is not that of the screen. For some assays here: A potency beside an inconclusive call is a rough fit, not a confirmed value. A structure can be active in one record and inactive in another. Active and inactive are the calls of the source. Unless noted, calls follow the shape of the dose curve; as a rule, active = well fitted curve in the direction sought with a large enough effect; inconclusive = small, poorly fitted or top-dose-only effect, or another doubt; inactive = no such curve, though single readings can be large; an effect the other way counts as inactive or inconclusive.
# Key:
# [1] = molecular target: N-terminal Xaa-Pro-Lys N-methyltransferase 1 (Homo sapiens) (UniProt Q9BV86); experiment: Confirmatory qHTS for Inhibitors of N-terminal methyltransferase 1 (NTMT1): MTaseGlo Assay (AID 1645874); conditions: NTMT1 enzyme, MTase-Glo SAH luminescence; series mostly up to 100 µM; also: nearly all actives have a fitted effect of over 65% in size; also: potency is read from the fitted curve at half-maximal effect
# Chain of UniProt Q9BV86 (Q9BV86 whole entry, looked up): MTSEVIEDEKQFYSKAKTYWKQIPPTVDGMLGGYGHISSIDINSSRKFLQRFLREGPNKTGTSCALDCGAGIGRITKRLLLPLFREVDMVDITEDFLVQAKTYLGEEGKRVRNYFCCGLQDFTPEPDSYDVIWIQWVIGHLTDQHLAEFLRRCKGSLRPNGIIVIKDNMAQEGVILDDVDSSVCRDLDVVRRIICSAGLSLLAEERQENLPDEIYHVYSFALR
# Summary of the method: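 NTMT1 (125 nM) preincubated 15 min with compound and 100 uM SAM, then 1 uM SPKRIA peptide added for 30 min at room temperature. SAH detected by MTase-Glo luminescence; normalized to no-enzyme and DMSO controls, fitted to 4-parameter Hill.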
# [2] = molecular target: Papain (Carica papaya) (UniProt P00784); experiment: Primary qHTS assay for inhibitors of the protease papain (AID 1645873); conditions: papain Z-FR-AMC cleavage, AMC fluorescence; series mostly up to 49.8 µM;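 also: papain turnover of Z-FR-AMC read as the AMC fluorescence gain over 10 min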; also: potency is read from the fitted curve at half-maximal effect
# Chain of UniProt P00784 (P00784 whole entry, looked up): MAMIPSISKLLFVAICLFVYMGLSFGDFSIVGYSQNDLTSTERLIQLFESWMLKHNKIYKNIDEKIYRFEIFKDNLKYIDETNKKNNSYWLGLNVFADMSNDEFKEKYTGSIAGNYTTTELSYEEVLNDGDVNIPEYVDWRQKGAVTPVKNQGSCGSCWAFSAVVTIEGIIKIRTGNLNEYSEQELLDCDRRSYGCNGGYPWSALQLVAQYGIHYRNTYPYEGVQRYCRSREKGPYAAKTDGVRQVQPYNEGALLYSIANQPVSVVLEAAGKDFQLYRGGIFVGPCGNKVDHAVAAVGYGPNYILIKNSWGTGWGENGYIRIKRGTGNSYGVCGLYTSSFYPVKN
# [3] = NCATS anti-infectives library activity on the primary C. elegans qHTS viability assay (AID 1745855; calls by dose curve); conditions: C. elegans worm area imaging, day 7; series mostly up to 41.8 µM
# Summary of the method: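 Viability is taken from GFP fluorescence of PE254-GFP-FLuc C. elegans imaged by laser cytometry over 7 days. Ten L1 worms per well grow at 21 °C on TOP10 E. coli capsules with titrated compound; levamisole marks toxicity.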
# [4] = Primary qHTS for inhibitors of nuclear receptor binding SET domain protein 2 (NSD2) in an isogenic RCH-ACV NSD2 p.E1099K mutant (9B) (AID 1645876); conditions: RCH-ACV NSD2 E1099K (9B) viability, CellTiter-Glo, 72 h; series mostly up to 44.9 µM; also: nearly all actives have a fitted effect of over 70% in size; also: potency is read from the fitted curve at half-maximal effect
# [5] = molecular target: Phospholipid hydroperoxide glutathione peroxidase GPX4 (Homo sapiens) (UniProt P36969); experiment: Primary qHTS Assay for Inhibitors of Recombinant Selenoprotein Glutathione Peroxidase 4 (GPX4) (AID 1845192); conditions: recombinant GPX4, GR-coupled NADPH fluorescence, 15 min; series mostly up to 50 µM; also: potency is read from the fitted curve at half-maximal effect; nearly all actives have a fitted effect of over 65% in size
# Chain of UniProt P36969 (P36969 whole entry, looked up): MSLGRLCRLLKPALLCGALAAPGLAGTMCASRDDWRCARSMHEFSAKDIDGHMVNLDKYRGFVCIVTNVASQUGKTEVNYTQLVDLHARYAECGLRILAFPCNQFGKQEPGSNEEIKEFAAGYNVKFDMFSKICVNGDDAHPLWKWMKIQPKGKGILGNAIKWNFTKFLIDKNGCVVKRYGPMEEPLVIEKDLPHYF
# Summary of the method: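 GR-coupled readout: 100 nM GR, 1 mM GSH, 0.5 mM NADPH; NADPH fluorescence (ex 340/em 450 nm) read at t=0 and after 15 min RT. GPX4 200 nM, preincubated 30 min with compound; substrate 0.5 mM CHP.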
# [6] = Primary qHTS for inhibitors of nuclear receptor binding SET domain protein 2 (NSD2) in an RCH-ACV wild type WT cells (2C) (AID 1645877); conditions: RCH-ACV (leukaemia line) NSD2 WT (2C) viability, CellTiter-Glo, 72 h; series mostly up to 44.9 µM; also: potency is read from the fitted curve at half-maximal effect; nearly all actives have a fitted effect of over 70% in size
# [7] = molecular target: Metallo-beta-lactamase type 2 (Klebsiella pneumoniae) (UniProt C7C422); experiment: qHTS to identify inhibitors of the New Delhi Metallo-beta-lactamase (NDM): assay validation screen against the NCATS LOPAC Collection (AID 1794843); conditions: NDM-1 enzyme, nitrocefin hydrolysis, absorbance 485 nm; series mostly up to 38.4 µM; also: potency is read from the fitted curve at half-maximal effect
# Chain of UniProt C7C422 (C7C422 whole entry, looked up): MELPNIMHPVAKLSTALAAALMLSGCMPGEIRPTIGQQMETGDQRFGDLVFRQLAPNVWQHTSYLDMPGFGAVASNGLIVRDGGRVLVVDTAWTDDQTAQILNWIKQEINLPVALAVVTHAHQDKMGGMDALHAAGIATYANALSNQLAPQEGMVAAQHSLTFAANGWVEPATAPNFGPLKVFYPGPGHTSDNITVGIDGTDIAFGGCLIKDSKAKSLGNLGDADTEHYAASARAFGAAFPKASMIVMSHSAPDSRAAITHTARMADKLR
# Summary of the method: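 NDM-1 at 2 nM final in 50 mM HEPES pH 7.0, 1 uM ZnSO4, 0.01% Tween20, preincubated with LOPAC compounds pinned in DMSO; 50 uM nitrocefin (stock) added. Hydrolysis read as absorbance at 485 nm in the plateau phase.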
# [8] = molecular target: Luciferin 4-monooxygenase (Photinus pyralis) (UniProt P08659); experiment: Primary firefly luciferase (FLuc) qHTS assay for identification of artifact compounds. (AID 1845220); conditions: purified firefly luciferase, luminescence, 5 min; series mostly up to 54.1 µM; also: potency is read from the fitted curve at half-maximal effect; nearly all actives have a fitted effect of over 60% in size
# Summary of the method: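 qHTS, 15 min compound preincubation with substrate (10 uM luciferin, 10 uM ATP) at RT, then 10 nM FLuc; 5 min; luminescence; % inhibition vs no-enzyme/DMSO controls, 4-parameter Hill fit.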
# Tags tell the direction and shape of the fitted curve.
structure (smiles),measurement,setting,value
CN=c1nc(-c2ccccc2)n(-c2ccccc2)s1,Potency,[1],active: 0.851 µM
COc1ccc2cc([C@H](C)C(=O)O)ccc2c1,Potency,[2],inactive
same,Potency,[3],inactive
CN1C(=O)C(Cc2c[nH]c3ccccc23)NC1=S (configuration not stated),Potency,[4],"inconclusive: 15.9 µM [inhibitor, partial curve, poor fit]"
CC[N+](CC)(CC)CCOc1cccc(OCC[N+](CC)(CC)CC)c1OCC[N+](CC)(CC)CC,Potency,[1],"inconclusive: 2.74 µM [inhibitor, full curve]"
Cc1ccc(C(=O)Nc2ccc(S(=O)(=O)O)c3cc(S(=O)(=O)O)cc(S(=O)(=O)O)c23)cc1NC(=O)c1cccc(NC(=O)Nc2cccc(C(=O)Nc3cc(C(=O)Nc4ccc(S(=O)(=O)O)c5cc(S(=O)(=O)O)cc(S(=O)(=O)O)c45)ccc3C)c2)c1,Potency,[2],active: 7.08 µM
same,Potency,[5],active: 7 µM
Oc1c(Br)cc(Br)c2cccnc12,Potency,[4],active: 3.76 µM
CC1(C)CCC2=C(O1)c1ccccc1C(=O)C2=O,Potency,[4],active: 13.2 µM
Nc1cc(C(F)(F)F)ccc1S,Potency,[1],inactive
same,Potency,[6],active: 15 µM
c1cnc2c(c1)ccc1cccnc12,Potency,[2],active: 15.8 µM
same,Potency,[7],active: 20 µM
COc1cc(Nc2ncc(F)c(Nc3ccc4c(n3)NC(=O)C(C)(C)O4)n2)cc(OC)c1OC,Potency,[1],inactive
same,Potency,[4],"inconclusive: 1.32 µM [inhibitor, full curve]"
same,Potency,[6],"inconclusive: 1.32 µM [inhibitor, full curve]"
Oc1ccc(OCc2ccccc2)cc1,Potency,[4],inactive and active: 2.63 µM
COC(=O)C1=C(C)NC(C)=C(C(=O)OCCN2CCN(C(c3ccccc3)c3ccccc3)CC2)C1c1cccc([N+](=O)[O-])c1 (configuration not stated),Potency,[4],"inconclusive: 8.33 µM [inhibitor, full curve]"
O=c1c(-c2ccc(O)cc2)coc2cc(O)ccc12,Potency,[1],inactive
same,Potency,[4],"inconclusive: 16.6 µM [inhibitor, partial curve]"
same,Potency,[6],"inconclusive: 16.6 µM [inhibitor, partial curve]"
O=c1cc(-c2ccccc2)oc2cc(O)cc(O)c12,Potency,[4],active: 16.6 µM
CC(C)(C(=O)NCC(F)(F)C(F)(F)F)C(=O)N[C@@H]1C(=O)Nc2ccccc2-c2ccccc21,Potency,[4],"inconclusive: 18.6 µM [inhibitor, partial curve, poor fit]"
CN(C)c1ccc(Nc2nc(N)n(C(=O)c3c(F)cccc3F)n2)cc1,Potency,[1],"inconclusive: 50.1 µM [inhibitor, partial curve, poor fit]"
same,Potency,[5],"inconclusive: 10.1 µM [inhibitor, partial curve]"
CC(C)Oc1ccc2c(=O)c(-c3ccccc3)coc2c1,Potency,[4],inactive
COc1ccc(CC2=NN3C([C@@H](CCc4ccccc4)[C@@H](C)O)=NC(C)C3C(=O)N2)cc1OC (some centres not stated),Potency,[4],"inconclusive: 13.2 µM [inhibitor, partial curve, poor fit]"
CCCCC/C=C\C/C=C\CCCCCCCC(=O)NC(C)c1ccccc1 (configuration not stated),Potency,[4],"inconclusive: 29.9 µM [inhibitor, single point]"
O=NN(CCCl)C(=O)NCCCl,Potency,[4],inactive
CN(C)c1ccc2cc(C(=O)N[C@@H](CCCN=C(N)CCl)C(=O)NCc3ccccc3)ccc2c1,Potency,[1],"inconclusive: 42.6 µM [inhibitor, partial curve]"
[O-][n+]1ccccc1SSc1cccc[n+]1[O-],Potency,[1],"inconclusive: 12 µM [inhibitor, full curve]"
same,Potency,[4],active: 0.082 µM
same,Potency,[6],active: 0.103 µM
C[C@H]1C[C@H]2[C@@H]3CCC4=CC(=O)C=C[C@]4(C)[C@@]3(Cl)[C@@H](O)C[C@]2(C)[C@@]1(O)C(=O)CO,Potency,[4],"inconclusive: 21.1 µM [inhibitor, partial curve, poor fit]"
O=C(O)Cc1ccc(-c2ccccc2)cc1,Potency,[4],"inconclusive: 29.9 µM [inhibitor, single point]"
COc1ccc(/C=C/C(=O)Nc2ccccc2C(=O)O)cc1OC,Potency,[2],"inconclusive: 17.8 µM [inhibitor, partial curve, poor fit]"
same,Potency,[8],active: 3.01 µM
Cc1c(C)n(Cc2ccccc2)c2ccc(C(=O)OCCN(C)C)cc12,Potency,[1],active: 5.78 µM
same,Potency,[6],active: 9.44 µM
CN1CCC[C@@H]1c1cccnc1,Potency,[4],inactive
COc1ccc(-c2cc(=O)c3c(O)cc(O)cc3o2)cc1O,Potency,[4],active: 11.8 µM
CCNC(=O)c1noc(-c2cc(C(C)C)c(O)cc2O)c1-c1ccc(CN2CCOCC2)cc1,Potency,[1],inactive
same,Potency,[6],active: 18.3 nM and active: 13.2 nM
CNC(=O)c1c(I)c(NC(=O)CCCCC(=O)Nc2c(I)c(C(=O)O)c(I)c(C(=O)NC)c2I)c(I)c(C(=O)O)c1I,Potency,[4],inactive
CC(C)c1ccc2oc3nc(N)c(C(=O)O)cc3c(=O)c2c1,Potency,[4],"inconclusive: 29.9 µM [inhibitor, single point] and inactive"
CS(=O)(=O)c1ccc(-c2cn3ccccc3n2)cc1,Potency,[1],active: 9.55 µM
same,Potency,[4],"inconclusive: 4.22 µM [inhibitor, full curve]"
same,Potency,[6],"inconclusive: 2.66 µM [inhibitor, full curve]"
CC[C@]1(O)C[C@H]2CN(CCc3c([nH]c4ccccc34)[C@@](C(=O)OC)(c3cc4c(cc3OC)N(C=O)[C@H]3[C@@](O)(C(=O)OC)[C@H](OC(C)=O)[C@]5(CC)C=CCN6CC[C@]43[C@@H]65)C2)C1,Potency,[4],active: 7.5 nM and active: 59 nM
same,Potency,[6],active: 6.7 nM and active: 29.5 nM
O=C1NC(=O)/C(=C/c2ccc3c(c2)OC(F)(F)O3)S1,Potency,[4],"inconclusive: 33.2 µM [inhibitor, single point]"
same,Potency,[6],"inconclusive: 23 µM [inhibitor, single point]"
O=C(CCN1CCN2CCCC2C1)N1c2ccccc2Sc2ccc(Cl)cc21 (configuration not stated),Potency,[4],"inconclusive: 14.6 µM [inhibitor, single point]"
same,Potency,[6],"inconclusive: 11.6 µM [inhibitor, single point]"
Cn1nnc2c(C(N)=O)ncn2c1=O,Potency,[4],"inconclusive: 23.7 µM [inhibitor, single point] and inactive"
same,Potency,[6],"inconclusive: 26.6 µM [inhibitor, single point]"
O=C(NCc1ccccc1)c1csc(Nc2ccncn2)n1,Potency,[4],"active: 11.8 µM and inconclusive: 20.5 µM [inhibitor, single point]"
same,Potency,[6],active: 9.34 µM and active: 16.3 µM
CC(C(=O)O)c1ccc(C(=O)c2cccs2)cc1 (configuration not stated),Potency,[4],"inconclusive: 29.9 µM [inhibitor, single point]"
same,Potency,[6],"inconclusive: 23.7 µM [inhibitor, single point]"
Nc1ccccc1N,Potency,[4],"inconclusive: 68.6 µM [inhibitor, partial curve, poor fit]"
same,Potency,[6],"inconclusive: 34.4 µM [inhibitor, single point]"
